Where a name gives a salt, the structure may show the parent alone. ± gives the standard deviation of the averaged measurements. Screen size: about 1,000 compounds; about 15 (2%) showed an effect of 50% or more. Some of the results follow.
Test system: HFF
Experiment: uninfected host cell viability relative to vehicle control; higher = less host cell toxicity
Conditions: 5 µM; 72 h; oxygen 21 %
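Also: confluent HFF monolayers, run in parallel with the Toxoplasma growth screen as a host toxicity counterscreen.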

Structure (SMILES)	uninfected host cell viability [%]
COc1c(C)c2c(c(O)c1C/C=C(\C)CCC(=O)O)C(=O)OC2 [Mycophenolic acid]	88.36 ± 0.65
CC(C)NC[C@H](O)COc1cccc2ccccc12 [(S)-(-)-Propranolol hydrochloride]	90.2 ± 3
O=c1c(-c2ccc(O)cc2)coc2cc(O)ccc12 [Daidzein]	94.9 ± 3.5
OCC1OC(n2cnc3c(NC4CCCC4)nc(Cl)nc32)C(O)C1O (stereo not given) [2-Chloro-N6-cyclopentyladenosine]	91.4 ± 8.7
N[C@@H](Cc1cc(CP(=O)(O)O)cc(-c2ccccc2Cl)c1)C(=O)O	88.9 ± 6
CC(=O)N(OCc1ccccc1)[C@H]1c2cc(C#N)ccc2OC(C)(C)[C@H]1O	98.6 ± 2.8
O=C(O)C=C1CCCc2ccccc2C1O (stereo not given)	83.32 ± 0.084
NCC(O)(CS(=O)(=O)O)c1ccc(Cl)cc1 (stereo not given) [2-Hydroxysaclofen]	88.5 ± 1.9
CC[C@H](NC(=O)c1c(C)c(-c2ccccc2)nc2ccccc12)c1ccccc1	89.34 ± 0.64
CCOC(=O)c1ncn2c1CN(C)C(=O)c1cc(F)ccc1-2 [Flumazenil]	87.4 ± 1.9
CC(C1=C(CCN(C)C)Cc2ccccc21)c1ccccn1 (stereo in doubt) [(S)-(+)-Dimethindene maleate]	94.3 ± 0.97
O=C(O)Cc1ccc(OCCNC[C@H](O)c2ccccc2)cc1 [ZD 2079 hydrochloride]	87.2 ± 4.2
COC(=O)c1c(C)[nH]c(C)c1C(=O)c1ccccc1Cc1ccccc1	85 ± 2.6
CC(C)n1nnc2cc(C(=O)O)ccc21	100 ± 2.3
CCCC1O[C@@H]2C[C@H]3[C@@H]4CCC5=CC(=O)C=C[C@]5(C)[C@H]4[C@@H](O)C[C@]3(C)[C@]2(C(=O)CO)O1 (stereo not given in full) [Budesonide]	96.6 ± 3.2
Cc1ccccc1C(=O)c1ccc(Nc2ccc(Br)cc2N)cc1Cl	84 ± 2.2
c1ccc(C(O[C@@H]2CCCN(CCc3ccc4c(c3)OCO4)C2)c2ccccc2)cc1 [Zamifenacin fumarate]	90.5 ± 1
CC(C)NCC(O)c1ccc(O)c(O)c1 (stereo not given) [Isoproterenol hydrochloride]	77.4 ± 5.1
Oc1ccc(-c2c(-c3ccccc3)nn3c(C(F)(F)F)cc(C(F)(F)F)nc23)cc1	99.2 ± 3.1
Nc1nc2c(ncn2COCCO)c(=O)[nH]1 [Acyclovir]	94.7 ± 3.5
O=S(=O)(c1ccccc1)N(CC(F)(F)F)c1ccc(C(O)(C(F)(F)F)C(F)(F)F)cc1	90.3 ± 6.8
C[C@H](NC[C@H](O)CP(=O)(O)CC1CCCCC1)c1ccc(Cl)c(Cl)c1	84.83 ± 0.31

Structure (SMILES)	uninfected host cell viability [%]
CCOc1cc(CC(=O)N[C@@H](CC(C)C)c2ccccc2N2CCCCC2)ccc1C(=O)O [Repaglinide]	93.7 ± 2.1
O=C(CCCCCN1C(=O)c2cccc3cccc(c23)C1=O)NO [Scriptaid]	57.5 ± 1.4
C=C[C@@]1(C)CC(=O)[C@]2(O)[C@@]3(C)[C@@H](O)CCC(C)(C)[C@@H]3[C@H](O)[C@H](OC(C)=O)[C@@]2(C)O1 [Forskolin]	95.9 ± 2.4
Nc1c2c(nc3ccccc13)CCCC2 [Tacrine hydrochloride]	93.4 ± 1.1
Cc1ccc(NC(=O)c2cccc(N(C)C)c2)cc1NC(=O)c1ccc(O)cc1	70.9 ± 0.75
CCc1ccc2c(-c3cccc(Cl)c3)nc(=O)n(CC)c2n1	87.2 ± 1.4
COC(=O)C1=C(C)NC(C)=C([N+](=O)[O-])C1c1ccccc1C(F)(F)F (racemic)	70.47 ± 0.64
CC(C)[C@H]1c2ccc(F)cc2CC[C@@]1(CCN(C)CCCc1nc2ccccc2[nH]1)OC(=O)C1CC1 [NNC 55-0396 dihydrochloride]	15.68 ± 0.031
O=C1CN(/N=C/c2ccc(-c3ccc([N+](=O)[O-])cc3)o2)C(=O)N1 [Dantrolene, sodium salt]	97.8 ± 1.1
Nc1[nH]nc2nnc(-c3c(-c4ccccc4)nn4ccccc34)cc12	94.685 ± 0.091
CS(=O)(=O)c1ccc(-c2cc(Br)sc2-c2ccc(F)cc2)cc1	104 ± 1.4
Cc1nc2sccn2c(=O)c1CCN1CCC(=C(c2ccccc2)c2ccc(F)cc2)CC1	93.9 ± 5.6
COc1ccc(-c2nc(-c3ccc(-c4cccc(Cl)c4)o3)[nH]c2-c2ccc(OC)cc2)cc1 [Neurodazine]	80.3 ± 5.1
CC(C)NCC(O)COc1ccc(COCCOC(C)C)cc1 (racemic) [(±)-Bisoprolol hemifumarate]	90.5 ± 3.5
NC(=O)N1C(=O)/C(=C(\O)c2cccs2)c2cc(Cl)ccc21 [Tenidap]	89.1 ± 2
CC1C(=O)OC2C(O)C34C5CC(C(C)(C)C)C36C(OC(=O)C6O)OC4(C(=O)O5)C12O (stereo not given) [Ginkgolide B]	96.9 ± 2.6
CCCCCCCCc1ccc(-c2ccc(C(=O)O)cc2)cc1	85.5 ± 5
Cc1cc(NC(=O)Nc2ccc(N(C)C)cc2)c2cc(F)cc(F)c2n1	85.86 ± 0.3
CC1(C)Oc2ccc(C#N)cc2[C@@H](N2CCCC2=O)[C@@H]1O [Levcromakalim]	87.59 ± 0.25
O=c1[nH]ccc2c(S(=O)(=O)N3CCCNCC3)cccc12 [HA 1100 hydrochloride]	90 ± 3.1
Cc1oncc1C(=O)Nc1ccc(C(F)(F)F)cc1 [Leflunomide]	93.41 ± 0.27
O=c1[nH]c2cc(C(F)(F)F)c(N3CCOCC3)cc2n(CP(=O)(O)O)c1=O	88.1 ± 5.2

Structure (SMILES)	uninfected host cell viability [%]
Cc1ccc(O)c(N=Nc2ccccc2)n1	91.6 ± 1
CSc1ccc2c(c1)C(N1CCN(C)CC1)Cc1ccccc1S2 (stereo not given) [Methiothepin maleate]	81.6 ± 1.7
O=C(O)COc1ccc(OCCNC[C@H](O)COc2ccccc2)cc1 [ICI 215,001 hydrochloride]	88.1 ± 3.3
Cc1cc(C(C)(C)C)c(O)c(C)c1CC1=NCCN1 [Oxymetazoline hydrochloride]	83.4 ± 1.6
CC(C)(C(=O)O)c1ccc(C(O)CCCN2CCC(C(O)(c3ccccc3)c3ccccc3)CC2)cc1 (stereo not given) [Fexofenadine hydrochloride]	89.1 ± 1.1
CCN(CC)CCCCNc1ncc2cc(-c3c(Cl)cccc3Cl)c(NC(=O)NC(C)(C)C)nc2n1	77.5 ± 3.9
COc1ccc(-n2[nH]c3c4c(ncc3c2=O)CCCCC4)cc1	92.03 ± 0.15
Cc1sc(N)c(C(=O)c2cccc(C(F)(F)F)c2)c1C	75.4 ± 5
COc1ccc(OC)c2c(=S)c3ccccc3[nH]c12	76.9 ± 3.1
C=C1C(=O)O[C@@H]2/C=C(\C)CC/C=C(\C)CC[C@@H]12 [Costunolide]	114 ± 2.7
O=C(Nc1ccccc1)c1cc([N+](=O)[O-])ccc1Cl	85.3 ± 1.4
CC(=O)N(O)[C@@H]1c2cc(C#N)ccc2OC(C)(C)[C@H]1O	92.4 ± 3.3
Cn1cnc2c(NCc3ccccc3)nc(NCCO)nc21 [Olomoucine]	81.24 ± 0.74
CC(C)N1Cc2cc(S(C)(=O)=O)ccc2N(CCN2CC=C(c3c[nH]c4cc(F)ccc34)CC2)S1(=O)=O	86.3 ± 1.4
COc1cccc2c1C(=O)c1c(O)c3c(c(O)c1C2=O)C[C@@](O)(C(=O)CO)C[C@@H]3O[C@H]1C[C@H](N)[C@H](O)[C@H](C)O1 [Doxorubicin hydrochloride]	63.2 ± 0.75
O=C(C=Cc1ccccc1)NC(NC(=S)Nc1ccc(Cl)cc1)C(Cl)(Cl)Cl (stereo not given)	81.9 ± 0.86
NCCNC(=O)c1ccc(Cl)cn1 [Lazabemide hydrochloride]	94.7 ± 1.2
N=C(N)NC(=N)Nc1ccccc1 [1-Phenylbiguanide hydrochloride]	86 ± 6.5
Fc1ccc(C(c2ccc(F)cc2)N2CCN(C/C=C/c3ccccc3)CC2)cc1 [Flunarizine dihydrochloride]	93.1 ± 8
O=c1cc(-c2cccc3c2Sc2ccccc2S3)oc(N2CCOCC2)c1	88.9 ± 1.5
N=C(N)SCCc1ccc(OCc2ccc([N+](=O)[O-])cc2)cc1 [KB-R7943 mesylate]	98.457 ± 0.021
N#Cc1c(O)c2c(-c3ccc(-c4ccccc4O)cc3)csc2[nH]c1=O	83.9 ± 2.9

Structure (SMILES)	uninfected host cell viability [%]
O=[N+]([O-])c1ccccc1S(=O)(=O)NCC1CCC(CNCC2CCc3ccccc3C2)CC1 (stereo not given) [NTNCB hydrochloride]	85.7 ± 3.1
O=C(/C=C/c1ccccc1)NC(NC(=S)Nc1cccc2cccnc12)C(Cl)(Cl)Cl (stereo not given) [Salubrinal]	84.55 ± 0.26
Fc1ccc(Cl)cc1-c1nc(Nc2ccncc2)c2nccnc2n1	82.9 ± 1.1
O=C(NCCCN1CCC2(CC1)OCc1ccccc12)[C@H]1CCCN1Cc1ccccc1	83.3 ± 2.7
O=C(c1ccc(Nc2nccc(-c3cc4ccccc4s3)n2)cc1)N1CCC(N2CCCC2)CC1	14.9 ± 0.68
N=C(N)NC(=O)Cc1c(Cl)cccc1Cl [Guanfacine hydrochloride]	84.1 ± 5.9
Cc1ccc(CC2(O)CCN(CCOc3ccc(O)cc3)CC2)cc1	93.5 ± 2.2
COC(=O)C1=C(C)NC(C)=C(C(=O)NCCCN2CCC(c3ccccc3)(c3ccccc3)CC2)C1c1ccc([N+](=O)[O-])cc1 (stereo not given)	81.9 ± 1.8
OC(CN1CCC(Cc2ccc(F)cc2)CC1)c1ccc(Cl)cc1 (stereo not given) [Eliprodil]	88.9 ± 1.1
Cc1c(NC(=O)N2CCOCC2)ccc2c1c1ccccc1n2C(C)C	86.42 ± 0.39
O=C(O)c1ccc(-c2ccc3cc(O)c(C45CC6CC(CC(C6)C4)C5)cc3c2)cc1	78 ± 3.5
Cc1c(C2CCN(CCc3ccccc3)CC2)noc1-c1ccc(Cl)cc1 [L-741,742 hydrochloride]	99.5 ± 3.1
c1ccc(-c2[nH]ncc2-c2ccnc3ccccc23)nc1	85.1 ± 2.5
NC(=O)CNCCC(c1ccccc1)c1ccccc1 [N20C hydrochloride]	96.52 ± 0.7
CN1CCc2cc(Cl)c(O)cc2[C@@H](c2ccccc2)C1	86 ± 3.2
O=C(O)c1ccc(-c2c[nH]c3ncc(-c4ccccc4)cc23)cc1C1CCCC1	109 ± 2.2
CCCCNC(=O)[C@@H]1Cc2ccccc2N1C(=O)[C@@H](N)CC [Butabindide oxalate]	88.3 ± 5.3
CC1=C(/C=C/C(C)=C/C=C/C(C)=C/C(=O)O)C(C)(C)CCC1 [Retinoic acid]	98.8 ± 1.5
NC(N)=Nc1ccc(Cl)cc1 [4-Chlorophenylguanidine hydrochloride]	87.3 ± 2.5

Reference: the supplement of paper PMC4894684
